# Measured values taken from PubChem BioAssay AID624417 (National Center for Advancing Translational Sciences (NCATS), 2012).
# Hit rate of the full screen: of about 410,000 compounds, about 6,400 (1.6%) were called active. The inconclusive results got no clear call from the source; some entries with a clear call stand among them for comparison. Calls follow the shape of the dose curve; as a rule, active = well fitted inhibition curve with a large enough effect; inconclusive = small, poorly fitted or top-dose-only effect; inactive = no such curve, though single readings can be large or run the other way. Potencies of inconclusive entries are left out as doubtful fits.
# Target: Glucagon-like peptide 1 receptor (Homo sapiens) (UniProt P43220)
# UniProt P43220, sequence (P43220 whole entry, looked up): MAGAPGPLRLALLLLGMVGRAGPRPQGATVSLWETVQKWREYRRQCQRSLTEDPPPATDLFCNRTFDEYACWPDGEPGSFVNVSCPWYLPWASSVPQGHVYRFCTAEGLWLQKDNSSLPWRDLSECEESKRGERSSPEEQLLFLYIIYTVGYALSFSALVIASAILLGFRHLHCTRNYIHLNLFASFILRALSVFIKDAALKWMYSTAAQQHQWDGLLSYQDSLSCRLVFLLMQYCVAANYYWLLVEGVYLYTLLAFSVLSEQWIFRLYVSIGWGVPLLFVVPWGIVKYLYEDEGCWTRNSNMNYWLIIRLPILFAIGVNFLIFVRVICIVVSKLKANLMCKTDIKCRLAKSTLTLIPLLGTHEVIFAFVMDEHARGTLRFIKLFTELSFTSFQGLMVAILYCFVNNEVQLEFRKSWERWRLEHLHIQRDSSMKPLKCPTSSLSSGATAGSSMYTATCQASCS
# Experiment: qHTS of GLP-1 Receptor Inverse Agonists (Inhibition Mode); also: nearly all actives have a fitted effect of over 55% in size
# Conditions: HEK293 GLP-1R CRE-luciferase, luminescence, 24 h, GLP-1R form is constitutively active; activity change, negative = inhibition: at 38.3 µM (top of the series) unless noted
# Procedure, shortened: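 Stable HEK293 clone (constitutively active GLP-1R + cAMP-response luciferase); 200 cells/uL plated, 12 h pre-culture, compound 24 hr, 37 deg C/5% CO2; detection reagent 12 min RT; luminescence.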
# % is scaled to controls: 0 for no effect and ±100 for the full control effect; potency is read from the fitted curve at half-maximal effect; tags tell the direction and shape of the fitted curve.
SMILES,"activity change, negative = inhibition",Potency
O=C(CC1C(=O)CCCC1=O)c1ccccc1,inactive: 75.8%,–
COc1ccccc1N1CCN(C(=O)c2cccc(Oc3ccccc3)c2)CC1,–,"inconclusive [inhibitor, partial curve, poor fit]"
O=C(NCCc1ccccc1)c1ccc2c(c1)nc1n2CCOC1,–,active: 8.91 µM
O=C1CCCCc2cc(O)c(O)cc21,inactive: 2.55%,–
CCC1(c2ccccc2)NC(=O)N(CC(=O)Nc2cc(Cl)ccc2N2CCN(C)CC2)C1=O (stereo not given),–,"inconclusive [inhibitor, partial curve, poor fit]"
Cc1c(-c2nsc(NC(=O)c3cccs3)n2)nnn1-c1ccc(F)cc1,inactive: -14.9%,–
CCOC(=O)c1cccc(NC(=O)CSc2ncc3c(n2)-c2ccc(Cl)cc2N(Cc2ccccc2)S3(=O)=O)c1,–,"inconclusive [inhibitor, single point]"
COc1ccccc1CNC(=O)CCS(=O)(=O)c1ccc2c(c1)oc(=O)n2C,inactive: -4.13%,–
CCOC(=O)C1(CCOc2ccccc2)CCN(Cc2ccc(-n3cccn3)cc2)CC1,–,"inconclusive [inhibitor, full curve, poor fit]"
Oc1ccc(-c2csc(Nc3ccccn3)n2)c(O)c1,–,"inconclusive [inhibitor, partial curve, poor fit]"
CCOC(=O)c1ccc(NC(=O)C2CCCN(S(=O)(=O)c3ccc(F)cc3)C2)cc1 (stereo not given),–,"inconclusive [inhibitor, partial curve, poor fit]"
Cc1cc(NC(=S)N(CCCN2CCN(C)CC2)Cc2ccco2)ccc1Cl,–,"inconclusive [inhibitor, single point]"
CCOC(=O)C1C(=O)CC(C)(O)C(C(=O)OCC)C1c1ccc(Br)cc1 (stereo not given),–,"inconclusive [inhibitor, single point]"
O=C(c1ccc(CSc2nc3ccncc3[nH]2)cc1)N1CCCCCC1,–,"inconclusive [inhibitor, single point]"
Cc1ccc(CSc2nnc([C@@H]3CCCN3C(=O)OC(C)(C)C)o2)cc1,–,"inconclusive [inhibitor, single point]"
COc1ccc(S(=O)(=O)N2CCCC2CNC(=O)C(=O)NCc2ccccc2)cc1 (stereo not given),–,"inconclusive [inhibitor, partial curve, poor fit]"
COc1ccc(CNC(=O)Nc2nc(C(N)c3ccccc3)cs2)cc1 (stereo not given),–,"inconclusive [inhibitor, single point]"
CCCc1cc(=O)oc2cc(OCC(=O)NCCc3c[nH]c4ccccc34)ccc12,–,"inconclusive [inhibitor, single point]"
COc1ccc(NCC(=O)Nc2cccc(C(F)(F)F)c2)cc1S(=O)(=O)N1CCOCC1,–,"inconclusive [inhibitor, partial curve, poor fit]"
O=C(Nc1cccc(O)c1)c1cc2nc(-c3ccccc3)cc(-c3ccccc3)n2n1,–,"inconclusive [inhibitor, partial curve]"
CC1=C(C(=O)N2CCCCC2)C(c2ccc(Cl)cc2)n2c(nc3ccccc32)N1 (stereo not given),inactive: -2.12%,–
CC1CCN(S(=O)(=O)c2ccc(C(=O)Nc3ccccn3)cc2)CC1,–,"inconclusive [inhibitor, single point]"

SMILES,"activity change, negative = inhibition",Potency
COc1ccc(-c2cn3cc(C)ccc3n2)cc1F,–,"inconclusive [inhibitor, partial curve, poor fit]"
CCC1=Nc2cc(C(=O)NCCCN3CCN(C)CC3)ccc2Sc2ccccc21,–,"inconclusive [inhibitor, partial curve, poor fit]"
O=C(Nc1ccc(SC(F)F)cc1)C1CC(=O)N(Cc2ccccc2)C1 (stereo not given),–,"inconclusive [inhibitor, partial curve, poor fit]"
Cc1ccc(CN2C(=O)c3ccccc3Sc3ccc(C(=O)N4CCOCC4)cc32)cc1,–,"inconclusive [inhibitor, single point]"
CCOC(=O)[C@]12CCCC=C1N(Cc1ccccc1)C(=O)[C@H](CC(=O)NCCCN1CCCC1=O)C2,inactive: 7.8%,–
N#CC1=C(N)Oc2cc(N)ccc2C1c1ccccc1 (stereo not given),–,"inconclusive [inhibitor, partial curve, poor fit]"
NC(=O)N=Nc1c(O)[nH]c2ccc([N+](=O)[O-])cc12,inactive: 10.9%,–
CCN1CCCC1CNCC(=O)Nc1ccc(OC(F)(F)F)cc1 (stereo not given),inactive: -26.8%,–
Cc1ccccc1N1C(=O)C(Cl)=C(N2CCCCCC2)C1=O,–,"inconclusive [inhibitor, single point]"
CN(C)/C=C/C(=O)/C=C/c1cn(-c2ncc(C(F)(F)F)cc2Cl)c2ccccc12,–,"inconclusive [inhibitor, single point]"
CCN(CC(=O)NCc1ccc(Cl)cc1)C(=O)c1sccc1C,inactive: -19.1%,–
C/C(=N\NC(N)=S)c1ccc2c(c1)OCCO2,–,"inconclusive [inhibitor, single point]"
O=c1c2ccccc2nc(-c2ccccc2)n1O,inactive: -7.52%,–
CN(C)CCCn1c(-c2ccc(Cl)cc2)csc1=Nc1ccccc1,–,"inconclusive [inhibitor, partial curve, poor fit]"
CCOc1cccc(CN2CCCC(C(=O)c3cccc(C(F)(F)F)c3)C2)c1O (stereo not given),–,"inconclusive [inhibitor, single point]"
Cc1ccc2nc(CN3CCN(S(=O)(=O)c4ccc(C(C)C)cc4)CC3)oc2c1,–,"inconclusive [inhibitor, single point]"
Cc1nc(CN2CCN(Cc3nc(C(c4ccccc4)c4ccccc4)no3)CC2)cs1,–,"inconclusive [inhibitor, partial curve, poor fit]"
CCSc1nnc(-c2cccs2)o1,inactive: 0%,–
O=C(NCc1ccccn1)c1ccc([N+](=O)[O-])cc1,inactive: 11.7%,–
CN(C)c1ccc(/C=C2\C(=N)N3N=C(CC(=O)N4CCCCC4)SC3=NC2=O)cc1,–,"inconclusive [inhibitor, single point]"
COc1ccc(N2CCN(Cc3nc4c(c(=O)n(C)c(=O)n4C)n3C(C)C)CC2)cc1,inactive: -14.2%,–
Cc1cc(C)cc(NC(=O)Cn2c(=O)n(-c3ccc(C)c(C)c3)c(=O)c3oc4ccccc4c32)c1,inactive: -2.96%,–

SMILES,"activity change, negative = inhibition",Potency
O=C(O)c1ccccc1NC(=O)c1cc2ccccc2oc1=O,inactive: -12.6%,–
COc1ccc(-n2nc(C(=O)NCC(=O)N3CC(C)CC(C)C3)c3ccccc3c2=O)cc1 (stereo not given),–,"inconclusive [inhibitor, partial curve]"
Cc1cc(C(=O)NNC(=O)c2sccc2C)c(C)o1,–,"inconclusive [inhibitor, partial curve, poor fit]"
O=S(=O)(C=C(c1ccccc1)c1ccccc1)c1ccccc1,–,"inconclusive [inhibitor, single point]"
CC(C)C(Cl)=NOC(=O)Nc1ccc(S(N)(=O)=O)cc1,–,"inconclusive [inhibitor, single point]"
COc1ccc(OC)c(NC(=O)C(=O)NNC(=O)C23CC4CC(CC(C4)C2)C3)c1,–,"inconclusive [inhibitor, single point]"
CC(C)(C)c1ccc(C(=O)N2CCCC(c3nc4c(nnn4Cc4cccc(F)c4)c(=O)[nH]3)C2)cc1 (stereo not given),–,"inconclusive [inhibitor, single point]"
CC(=O)Nc1ccc(N=Cc2c(O)c(C(=O)Nc3ccccc3)cc3ccccc23)cc1,–,"inconclusive [inhibitor, partial curve, poor fit]"
Cc1cccc(NC(=S)NC2CCCC2)n1,–,active: 4.47 µM
O=S1(=O)N[C@@H](Cc2ccccc2)COc2cc(N3CCN(Cc4ccccc4F)CC3)ccc21,–,"inconclusive [inhibitor, partial curve, poor fit]"
Cc1cccc(-n2cc(CN3CCN(c4ccccn4)CC3)c(-c3cccc(F)c3)n2)c1,–,"inconclusive [inhibitor, partial curve, poor fit]"
Cc1ccc(Nc2nc(-c3cccnc3)cs2)cc1C,–,"inconclusive [inhibitor, partial curve, poor fit]"
CCN1CCSc2ccc(C(=O)NCc3cccc(Br)c3)cc21,–,active: 10 µM
COc1ccc2cc(CNc3ccc(C)cc3)c(=O)n(CC(=O)Nc3ccc(C)cc3Cl)c2c1,inactive: 8.06%,–
CCN(CC)c1ccc(NC(=O)COc2ccc(-n3cnnn3)cc2)cc1,–,"inconclusive [inhibitor, single point]"
CC1Cc2ccccc2N1C(=S)Nc1cccc(S(=O)(=O)N(C)C)c1 (stereo not given),–,"inconclusive [inhibitor, single point]"
CC(NS(=O)(=O)c1ccccc1Cl)C1CC2CCC1C2 (stereo not given),–,"inconclusive [inhibitor, partial curve, poor fit]"
CC(C)OCCCN1C(=O)c2[nH]nc(-c3ccccc3O)c2C1c1ccccc1F (stereo not given),–,"inconclusive [inhibitor, partial curve, poor fit]"
O=C(Nc1ccccc1-c1ccccc1)c1ccc(NC(=O)c2ccco2)cc1,–,"inconclusive [inhibitor, partial curve]"
COc1ccc2nc(NC(=O)CN(c3ccc(C)cc3)S(=O)(=O)c3c(C)nn(C)c3C)sc2c1,–,"inconclusive [inhibitor, partial curve, poor fit]"
O=C(NCC1CCN(Cc2cccc(Cl)c2)CC1)Nc1ccc(F)c(Cl)c1,–,"inconclusive [inhibitor, partial curve, poor fit]"
